# The supplement of paper PMC8728848
# The list shows a part of the results.
# B1: Clec18C (Homo sapiens) (protein)
# chain: MLHPETSPGRGHLLAVLLALLGTAWAEVWPPQLQEQAPMAGALNRKESFLLLSLHNRLRSWVQPPAADMRRLDWSDSLAQLAQARAALCGTPTPSLASGLWRTLQVGWNMQLLPAGLVSFVEVVSLWFAEGQRYSHAAGECARNATCTHYTQLVWATSSQLGCGRHLCSAGQAAIEAFVCAYSPRGNWEVNGKTIVPYKKGAWCSLCTASVSGCFKAWDHAGGLCEVPRNPCRMSCQNHGRLNISTCHCHCPPGYTGRYCQVRCSLQCVHGRLREEECSCVCDIGYGGAQCATKVHFPFHTCDLRIDGDCFMVSSEADTYYRARMKCQRKGGVLAQIKSQKVQDILAFYLGRLETTNEVIDSDFETRNFWIGLTYKTAKDSFRWATGEHQAFTSFAFGQPDNHGFGNCVELQASAAFNWNNQRCKTRNRYICQFAQEHISRWGPGS
# Tests used:
# Assay in all cases: glycan array binding signal (z-score within array); higher = stronger binding
# Conditions in all cases: glycan notation: IUPAC condensed, linker removed
# [1] = molecular target: GalNAc(b1-4)GlcNAc(b1-2)Man
# In short: (§1)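 Glycan array data came from 3228 arrays in the Consortium for Functional Glycomics database, and only arrays with an available protein sequence were kept. Glycan names were put into IUPAC-condensed notation, and columns mapping to the same glycan were averaged. The binding signal is a within-array Z-score, averaged across arrays of one protein sequence run at different concentrations or buffers and across linkers. A negative Z-score can be read as non-binding.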
# [2] = molecular target: GalNAc(b1-4)GlcNAc(b1-2)Man(a1-3)[GalNAc(b1-4)GlcNAc(b1-2)Man(a1-6)]Man(b1-4)GlcNAc(b1-4)GlcNAc
# In short: as §1
# [3] = molecular target: GalNAc(b1-4)GlcNAc(b1-3)GalNAc(b1-4)GlcNAc
# In short: as §1
# GalNAc(b1-4)GlcNAc6S = molecular target: GalNAc(b1-4)GlcNAc6S
# In short: as §1
# GalNAc(b1-6)GalNAc = molecular target: GalNAc(b1-6)GalNAc
# In short: as §1
# GalNAc3S(b1-4)GlcNAc = molecular target: GalNAc3S(b1-4)GlcNAc
# In short: as §1
# GalNAc3S(b1-4)GlcNAc3S = molecular target: GalNAc3S(b1-4)GlcNAc3S
# In short: as §1
# [4] = molecular target: GalNAc3S(b1-4)[Fuc(a1-3)]GlcNAc
# In short: as §1
# GalNAc4S6S(b1-4)GlcNAc = molecular target: GalNAc4S6S(b1-4)GlcNAc
# In short: as §1
# GalNAc6S(b1-4)GlcNAc = molecular target: GalNAc6S(b1-4)GlcNAc
# In short: as §1
# Glc(a1-4)Glc = molecular target: Glc(a1-4)Glc
# In short: as §1
# [5] = molecular target: Glc(a1-4)Glc(a1-4)Glc(a1-4)Glc
# In short: as §1
# Glc(a1-6)Glc(a1-6)Glc = molecular target: Glc(a1-6)Glc(a1-6)Glc
# In short: as §1
# [6] = molecular target: Glc(a1-6)Glc(a1-6)Glc(a1-6)Glc
# In short: as §1
# Glc(b1-4)Glc = molecular target: Glc(b1-4)Glc
# In short: as §1
# Glc(b1-6)Glc = molecular target: Glc(b1-6)Glc
# In short: as §1
# GlcA(b1-3)Gal = molecular target: GlcA(b1-3)Gal
# In short: as §1
# GlcA(b1-3)GlcNAc = molecular target: GlcA(b1-3)GlcNAc
# In short: as §1
# GlcA(b1-6)Gal = molecular target: GlcA(b1-6)Gal
# In short: as §1
# [7] = molecular target: GlcA3S(b1-3)Gal(b1-4)GlcNAc(b1-2)Man
# In short: as §1
# [8] = molecular target: GlcA3S(b1-3)Gal(b1-4)GlcNAc(b1-3)Gal(b1-4)Glc
# In short: as §1
# [9] = molecular target: GlcNAc(a1-3)Gal(b1-4)GlcNAc
# In short: as §1
# [10] = molecular target: GlcNAc(a1-4)Gal(b1-3)GlcNAc
# In short: as §1
# [11] = molecular target: GlcNAc(a1-4)Gal(b1-4)GalNAc
# In short: as §1
# [12] = molecular target: GlcNAc(a1-4)Gal(b1-4)GlcNAc
# In short: as §1
# [13] = molecular target: GlcNAc(a1-4)Gal(b1-4)GlcNAc(b1-3)Gal(b1-4)Glc
# In short: as §1
# [14] = molecular target: GlcNAc(a1-4)Gal(b1-4)GlcNAc(b1-3)Gal(b1-4)GlcNAc
# In short: as §1
# [15] = molecular target: GlcNAc(a1-4)Gal(b1-4)GlcNAc(b1-3)Gal(b1-4)GlcNAc(b1-3)Gal(b1-4)GlcNAc
# In short: as §1
# [16] = molecular target: GlcNAc(a1-4)Gal(b1-4)GlcNAc(b1-3)Gal(b1-4)[Fuc(a1-3)]GlcNAc(b1-3)Gal(b1-4)[Fuc(a1-3)]GlcNAc
# In short: as §1
# [17] = molecular target: GlcNAc(a1-6)Gal(b1-4)GlcNAc
# In short: as §1
# [18] = molecular target: GlcNAc(b1-2)Gal(b1-3)GalNAc
# In short: as §1
# [19] = molecular target: GlcNAc(b1-2)Man(a1-3)[GlcNAc(b1-2)Man(a1-6)]Man(b1-4)GlcNAc(b1-4)GlcNAc
# In short: as §1
# [20] = molecular target: GlcNAc(b1-2)Man(a1-3)[GlcNAc(b1-2)Man(a1-6)]Man(b1-4)GlcNAc(b1-4)[Fuc(a1-6)]GlcNAc
# In short: as §1
# [21] = molecular target: GlcNAc(b1-2)Man(a1-3)[GlcNAc(b1-4)][GlcNAc(b1-2)Man(a1-6)]Man(b1-4)GlcNAc(b1-4)GlcNAc
# In short: as §1
# [22] = molecular target: GlcNAc(b1-2)Man(a1-3)[GlcNAc(b1-4)][GlcNAc(b1-2)Man(a1-6)]Man(b1-4)GlcNAc(b1-4)[Fuc(a1-6)]GlcNAc
# In short: as §1
# [23] = molecular target: GlcNAc(b1-2)[GlcNAc(b1-4)]Man(a1-3)[GlcNAc(b1-2)Man(a1-6)]Man(b1-4)GlcNAc(b1-4)GlcNAc
# In short: as §1
# [24] = molecular target: GlcNAc(b1-2)[GlcNAc(b1-4)]Man(a1-3)[GlcNAc(b1-4)][GlcNAc(b1-2)Man(a1-6)]Man(b1-4)GlcNAc(b1-4)GlcNAc
# In short: as §1
binder,measurement,setting,value
B1,glycan array binding signal (z-score),[1],-0.321
same,glycan array binding signal (z-score),[2],0.041
same,glycan array binding signal (z-score),[3],0.286
same,glycan array binding signal (z-score),GalNAc(b1-4)GlcNAc6S,-0.4
same,glycan array binding signal (z-score),GalNAc(b1-6)GalNAc,-0.463
same,glycan array binding signal (z-score),GalNAc3S(b1-4)GlcNAc,-0.581
same,glycan array binding signal (z-score),GalNAc3S(b1-4)GlcNAc3S,-0.501
same,glycan array binding signal (z-score),[4],-0.342
same,glycan array binding signal (z-score),GalNAc4S6S(b1-4)GlcNAc,0.445
same,glycan array binding signal (z-score),GalNAc6S(b1-4)GlcNAc,-0.304
same,glycan array binding signal (z-score),Glc(a1-4)Glc,-0.479
same,glycan array binding signal (z-score),[5],-0.525
same,glycan array binding signal (z-score),Glc(a1-6)Glc(a1-6)Glc,-0.619
same,glycan array binding signal (z-score),[6],-0.39
same,glycan array binding signal (z-score),Glc(b1-4)Glc,-0.372
same,glycan array binding signal (z-score),Glc(b1-6)Glc,-0.483
same,glycan array binding signal (z-score),GlcA(b1-3)Gal,-0.334
same,glycan array binding signal (z-score),GlcA(b1-3)GlcNAc,-0.386
same,glycan array binding signal (z-score),GlcA(b1-6)Gal,-0.412
same,glycan array binding signal (z-score),[7],-0.539
same,glycan array binding signal (z-score),[8],-0.395
same,glycan array binding signal (z-score),[9],-0.449
same,glycan array binding signal (z-score),[10],-0.512
same,glycan array binding signal (z-score),[11],-0.079
same,glycan array binding signal (z-score),[12],-0.563
same,glycan array binding signal (z-score),[13],-0.535
same,glycan array binding signal (z-score),[14],-0.609
same,glycan array binding signal (z-score),[15],-0.549
same,glycan array binding signal (z-score),[16],-0.235
same,glycan array binding signal (z-score),[17],-0.165
same,glycan array binding signal (z-score),[18],-0.514
same,glycan array binding signal (z-score),[19],-0.59
same,glycan array binding signal (z-score),[20],0.724
same,glycan array binding signal (z-score),[21],-0.577
same,glycan array binding signal (z-score),[22],-0.642
same,glycan array binding signal (z-score),[23],-0.601
same,glycan array binding signal (z-score),[24],-0.551
